{
  "source": "the supplement of paper PMC8728848",
  "binders": {"B1": {"name": "HMGB1 (Homo sapiens), P09429 (protein)", "chain": "MGKGDPKKPRGKMSSYAFFVQTCREEHKKKHPDASVNFSEFSKKCSERWKTMSAKEKGKFEDMAKADKARYEREMKTYIPPKGETKKKFKDPNAPKRPPSAFFLFCSEYRPKIKGEHPGLSIGDVAKKLGEMWNNTAADDKQPYEKKAAKLKEKYEKDIAAYRAKGKPDAAKKGVVKAEKSKKKKEEEEDEEDEEDEEEEEDEEDEDEEEDDDDE"}},
  "assay_in_all_cases": "glycan array binding signal (z-score within array); higher = stronger binding",
  "details_in_all_cases": "glycan notation: IUPAC condensed, linker removed",
  "key": {"[1]": {"biological_target": "Man(a1-3)[Man(a1-6)]Man(b1-4)GlcNAc(b1-4)GlcNAc", "method_in_brief": "(§1)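 Glycan array binding is given as a within-array Z-score, which can be read as non-binding when negative. The arrays, 3228 of them, came from the Consortium for Functional Glycomics database and were retained only where the protein sequence was available. Z-scores were averaged across arrays of the same protein sequence at different concentrations or buffers and across linkers.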"}, "Man(b1-4)GlcNAc": {"biological_target": "Man(b1-4)GlcNAc", "method_in_brief": "as §1"}, "Neu5Ac(a2-3)Gal": {"biological_target": "Neu5Ac(a2-3)Gal", "method_in_brief": "as §1"}, "[2]": {"biological_target": "Neu5Ac(a2-3)Gal(b1-3)GalNAc", "method_in_brief": "as §1"}, "[3]": {"biological_target": "Neu5Ac(a2-3)Gal(b1-3)GalNAc(b1-3)Gal(a1-4)Gal(b1-4)Glc", "method_in_brief": "as §1"}, "[4]": {"biological_target": "Neu5Ac(a2-3)Gal(b1-3)GalNAc(b1-4)[Neu5Ac(a2-3)]Gal(b1-4)Glc", "method_in_brief": "as §1"}, "[5]": {"biological_target": "Neu5Ac(a2-3)Gal(b1-3)GalNAc6S", "method_in_brief": "as §1"}, "[6]": {"biological_target": "Neu5Ac(a2-3)Gal(b1-3)GlcNAc", "method_in_brief": "as §1"}, "[7]": {"biological_target": "Neu5Ac(a2-3)Gal(b1-3)GlcNAc(b1-3)Gal(b1-4)GlcNAc", "method_in_brief": "as §1"}, "[8]": {"biological_target": "Neu5Ac(a2-3)Gal(b1-3)GlcNAc6S", "method_in_brief": "as §1"}, "[9]": {"biological_target": "Neu5Ac(a2-3)Gal(b1-3)[Fuc(a1-4)]GlcNAc", "method_in_brief": "as §1"}, "[10]": {"biological_target": "Neu5Ac(a2-3)Gal(b1-3)[Fuc(a1-4)]GlcNAc(b1-3)Gal(b1-4)[Fuc(a1-3)]GlcNAc", "method_in_brief": "as §1"}, "[11]": {"biological_target": "Neu5Ac(a2-3)Gal(b1-3)[Neu5Ac(a2-3)Gal(b1-4)]GlcNAc", "method_in_brief": "as §1"}, "[12]": {"biological_target": "Neu5Ac(a2-3)Gal(b1-3)[Neu5Ac(a2-6)]GalNAc", "method_in_brief": "as §1"}, "Neu5Ac(a2-3)Gal(b1-4)Glc": {"biological_target": "Neu5Ac(a2-3)Gal(b1-4)Glc", "method_in_brief": "as §1"}, "[13]": {"biological_target": "Neu5Ac(a2-3)Gal(b1-4)GlcNAc", "method_in_brief": "as §1"}, "[14]": {"biological_target": "Neu5Ac(a2-3)Gal(b1-4)GlcNAc(b1-3)Gal(b1-4)GlcNAc", "method_in_brief": "as §1"}, "[15]": {"biological_target": "Neu5Ac(a2-3)Gal(b1-4)GlcNAc(b1-3)Gal(b1-4)GlcNAc(b1-3)Gal(b1-4)GlcNAc", "method_in_brief": "as §1"}, "[16]": {"biological_target": "Neu5Ac(a2-3)Gal(b1-4)GlcNAc(b1-3)Gal(b1-4)[Fuc(a1-3)]GlcNAc", "method_in_brief": "as §1"}, "[17]": {"biological_target": "Neu5Ac(a2-3)Gal(b1-4)GlcNAc6S", "method_in_brief": "as §1"}, "[18]": {"biological_target": "Neu5Ac(a2-3)Gal(b1-4)[Fuc(a1-3)]GlcNAc", "method_in_brief": "as §1"}, "[19]": {"biological_target": "Neu5Ac(a2-3)Gal(b1-4)[Fuc(a1-3)]GlcNAc(b1-3)Gal", "method_in_brief": "as §1"}, "[20]": {"biological_target": "Neu5Ac(a2-3)Gal(b1-4)[Fuc(a1-3)]GlcNAc(b1-3)Gal(b1-4)GlcNAc", "method_in_brief": "as §1"}, "[21]": {"biological_target": "Neu5Ac(a2-3)Gal(b1-4)[Fuc(a1-3)]GlcNAc(b1-3)Gal(b1-4)[Fuc(a1-3)]GlcNAc(b1-3)Gal(b1-4)[Fuc(a1-3)]GlcNAc", "method_in_brief": "as §1"}, "[22]": {"biological_target": "Neu5Ac(a2-3)Gal(b1-4)[Fuc(a1-3)]GlcNAc6S", "method_in_brief": "as §1"}, "[23]": {"biological_target": "Neu5Ac(a2-3)Gal6S(b1-4)GlcNAc", "method_in_brief": "as §1"}, "[24]": {"biological_target": "Neu5Ac(a2-3)Gal6S(b1-4)[Fuc(a1-3)]GlcNAc", "method_in_brief": "as §1"}, "Neu5Ac(a2-3)GalNAc": {"biological_target": "Neu5Ac(a2-3)GalNAc", "method_in_brief": "as §1"}, "[25]": {"biological_target": "Neu5Ac(a2-3)GalNAc(b1-4)GlcNAc", "method_in_brief": "as §1"}, "[26]": {"biological_target": "Neu5Ac(a2-3)[GalNAc(b1-4)]Gal(b1-4)Glc", "method_in_brief": "as §1"}, "[27]": {"biological_target": "Neu5Ac(a2-3)[GalNAc(b1-4)]Gal(b1-4)GlcNAc", "method_in_brief": "as §1"}, "[28]": {"biological_target": "Neu5Ac(a2-3)[Neu5Ac(a2-6)]GalNAc", "method_in_brief": "as §1"}, "[29]": {"biological_target": "Neu5Ac(a2-6)Gal(b1-4)GlcNAc", "method_in_brief": "as §1"}, "[30]": {"biological_target": "Neu5Ac(a2-6)Gal(b1-4)GlcNAc(b1-2)Man(a1-3)[Neu5Ac(a2-6)Gal(b1-4)GlcNAc(b1-2)Man(a1-6)]Man(b1-4)GlcNAc(b1-4)GlcNAc", "method_in_brief": "as §1"}, "[31]": {"biological_target": "Neu5Ac(a2-6)Gal(b1-4)GlcNAc(b1-3)Gal(b1-4)GlcNAc", "method_in_brief": "as §1"}, "[32]": {"biological_target": "Neu5Ac(a2-6)Gal(b1-4)GlcNAc(b1-3)Gal(b1-4)[Fuc(a1-3)]GlcNAc(b1-3)Gal(b1-4)[Fuc(a1-3)]GlcNAc", "method_in_brief": "as §1"}, "[33]": {"biological_target": "Neu5Ac(a2-6)Gal(b1-4)GlcNAc6S", "method_in_brief": "as §1"}, "Neu5Ac(a2-6)GalNAc": {"biological_target": "Neu5Ac(a2-6)GalNAc", "method_in_brief": "as §1"}, "[34]": {"biological_target": "Neu5Ac(a2-6)GalNAc(b1-4)GlcNAc", "method_in_brief": "as §1"}, "Neu5Ac(a2-8)Neu5Ac": {"biological_target": "Neu5Ac(a2-8)Neu5Ac", "method_in_brief": "as §1"}, "[35]": {"biological_target": "Neu5Ac(a2-8)Neu5Ac(a2-3)Gal(b1-4)Glc", "method_in_brief": "as §1"}, "[36]": {"biological_target": "Neu5Ac(a2-8)Neu5Ac(a2-3)[GalNAc(b1-4)]Gal(b1-4)Glc", "method_in_brief": "as §1"}, "[37]": {"biological_target": "Neu5Ac(a2-8)Neu5Ac(a2-8)Neu5Ac", "method_in_brief": "as §1"}, "[38]": {"biological_target": "Neu5Ac(a2-8)Neu5Ac(a2-8)Neu5Ac(a2-3)Gal(b1-4)Glc", "method_in_brief": "as §1"}, "[39]": {"biological_target": "Neu5Ac(a2-8)Neu5Ac(a2-8)Neu5Ac(a2-3)[GalNAc(b1-4)]Gal(b1-4)Glc", "method_in_brief": "as §1"}},
  "note": "The other results are listed elsewhere or left out.",
  "data": [
    {"binder": "B1", "values": [
      {"measurement": "glycan array binding signal (z-score)", "setting": "[1]", "value": -0.366},
      {"measurement": "glycan array binding signal (z-score)", "setting": "Man(b1-4)GlcNAc", "value": 0.327},
      {"measurement": "glycan array binding signal (z-score)", "setting": "Neu5Ac(a2-3)Gal", "value": -0.25},
      {"measurement": "glycan array binding signal (z-score)", "setting": "[2]", "value": -0.434},
      {"measurement": "glycan array binding signal (z-score)", "setting": "[3]", "value": -0.361},
      {"measurement": "glycan array binding signal (z-score)", "setting": "[4]", "value": 0.568},
      {"measurement": "glycan array binding signal (z-score)", "setting": "[5]", "value": 0.193},
      {"measurement": "glycan array binding signal (z-score)", "setting": "[6]", "value": -0.125},
      {"measurement": "glycan array binding signal (z-score)", "setting": "[7]", "value": -0.201},
      {"measurement": "glycan array binding signal (z-score)", "setting": "[8]", "value": 0.393},
      {"measurement": "glycan array binding signal (z-score)", "setting": "[9]", "value": -0.112},
      {"measurement": "glycan array binding signal (z-score)", "setting": "[10]", "value": 0.178},
      {"measurement": "glycan array binding signal (z-score)", "setting": "[11]", "value": -0.299},
      {"measurement": "glycan array binding signal (z-score)", "setting": "[12]", "value": -0.19},
      {"measurement": "glycan array binding signal (z-score)", "setting": "Neu5Ac(a2-3)Gal(b1-4)Glc", "value": -0.047},
      {"measurement": "glycan array binding signal (z-score)", "setting": "[13]", "value": -0.27},
      {"measurement": "glycan array binding signal (z-score)", "setting": "[14]", "value": 0.045},
      {"measurement": "glycan array binding signal (z-score)", "setting": "[15]", "value": -0.45},
      {"measurement": "glycan array binding signal (z-score)", "setting": "[16]", "value": 0.047},
      {"measurement": "glycan array binding signal (z-score)", "setting": "[17]", "value": 1.05},
      {"measurement": "glycan array binding signal (z-score)", "setting": "[18]", "value": -0.359},
      {"measurement": "glycan array binding signal (z-score)", "setting": "[19]", "value": -0.352},
      {"measurement": "glycan array binding signal (z-score)", "setting": "[20]", "value": -0.125},
      {"measurement": "glycan array binding signal (z-score)", "setting": "[21]", "value": -0.332},
      {"measurement": "glycan array binding signal (z-score)", "setting": "[22]", "value": 0.28},
      {"measurement": "glycan array binding signal (z-score)", "setting": "[23]", "value": 0.25},
      {"measurement": "glycan array binding signal (z-score)", "setting": "[24]", "value": 0.4},
      {"measurement": "glycan array binding signal (z-score)", "setting": "Neu5Ac(a2-3)GalNAc", "value": -0.289},
      {"measurement": "glycan array binding signal (z-score)", "setting": "[25]", "value": -0.303},
      {"measurement": "glycan array binding signal (z-score)", "setting": "[26]", "value": -0.407},
      {"measurement": "glycan array binding signal (z-score)", "setting": "[27]", "value": -0.285},
      {"measurement": "glycan array binding signal (z-score)", "setting": "[28]", "value": -0.145},
      {"measurement": "glycan array binding signal (z-score)", "setting": "[29]", "value": -0.33},
      {"measurement": "glycan array binding signal (z-score)", "setting": "[30]", "value": -0.425},
      {"measurement": "glycan array binding signal (z-score)", "setting": "[31]", "value": -0.378},
      {"measurement": "glycan array binding signal (z-score)", "setting": "[32]", "value": -0.308},
      {"measurement": "glycan array binding signal (z-score)", "setting": "[33]", "value": 0.628},
      {"measurement": "glycan array binding signal (z-score)", "setting": "Neu5Ac(a2-6)GalNAc", "value": -0.009},
      {"measurement": "glycan array binding signal (z-score)", "setting": "[34]", "value": 0.028},
      {"measurement": "glycan array binding signal (z-score)", "setting": "Neu5Ac(a2-8)Neu5Ac", "value": 0.031},
      {"measurement": "glycan array binding signal (z-score)", "setting": "[35]", "value": -0.239},
      {"measurement": "glycan array binding signal (z-score)", "setting": "[36]", "value": -0.141},
      {"measurement": "glycan array binding signal (z-score)", "setting": "[37]", "value": 0.005},
      {"measurement": "glycan array binding signal (z-score)", "setting": "[38]", "value": -0.297},
      {"measurement": "glycan array binding signal (z-score)", "setting": "[39]", "value": -0.096}
    ]}
  ]
}
